Binding data for 2 molecules are collected here from publication PMC4103893.

Sequences of proteins named here, by UniProt entry; tags and fusion partners are left off. Residues count along the entry.
UniProt P78536, residues 694-824: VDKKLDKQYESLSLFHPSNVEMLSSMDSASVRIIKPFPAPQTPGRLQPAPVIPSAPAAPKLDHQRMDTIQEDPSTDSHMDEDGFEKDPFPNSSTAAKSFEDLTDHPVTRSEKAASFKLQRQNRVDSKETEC

The target in assay [1] is T1, GST-hADAM10(697–748) (human) (UniProt O14672).
T1 sequence: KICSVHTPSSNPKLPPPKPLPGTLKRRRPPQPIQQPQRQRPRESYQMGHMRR
As to the kind of experiment: pull-down; 10 or 25 µg of GST, GST-hADAM10(697–748) or GST-hADAM17(694–824); lysates of HEK 293T cells transfected with HA-tagged sorting nexins or myc-tagged PACSINs; blots against the HA- or myc-tag; only the target purified.

In assay [2] the target is GST-hADAM17(694–824) (human) (UniProt P78536). Described as above.

No constants are given. Whether binding was seen depends on the method and setting. In cells and extracts the contact can be indirect. Some results given as binding are weak or reduced against the parent protein; the word gives no strength. Where a sequence is shown, tags or fusion partners need not be part of it.

B1: HA-tagged SNX18 (protein, UniProt Q96RF0 1-628)
chain: MALRARALYDFRSENPGEISLREHEVLSLCSEQDIEGWLEGVNSRGDRGLFPASYVQVIRAPEPGPAGDGGPGAPARYANVPPGGFEPLPVAPPASFKPPPDAFQALLQPQQAPPPSTFQPPGAGFPYGGGALQPSPQQLYGGYQASQGSDDDWDDEWDDSSTVADEPGALGSGAYPDLDGSSSAGVGAAGRYRLSTRSDLSLGSRGGSVPPQHHPSGPKSSATVSRNLNRFSTFVKSGGEAFVLGEASGFVKDGDKLCVVLGPYGPEWQENPYPFQCTIDDPTKQTKFKGMKSYISYKLVPTHTQVPVHRRYKHFDWLYARLAEKFPVISVPHLPEKQATGRFEEDFISKRRKGLIWWMNHMASHPVLAQCDVFQHFLTCPSSTDEKAWKQGKRKAEKDEMVGANFFLTLSTPPAAALDLQEVESKIDGFKCFTKKMDDSALQLNHTANEFARKQVTGFKKEYQKVGQSFRGLSQAFELDQQAFSVGLNQAIAFTGDAYDAIGELFAEQPRQDLDPVMDLLALYQGHLANFPDIIHVQKGKAWPLEQVIWSVLCRLKGATLTAVPLWVSESYSTGEEASRDVDAWVFSLECKLDCSTGSFLLEYLALGNEYSFSKVQRVPLMTVLSF
With B1, the binding entry in assay [1] and in assay [2] was “binds” throughout.

B2: HA-tagged SNX33 (protein, UniProt Q8WV41 1-574)
chain: MALKGRALYDFHSENKEEISIQQDEDLVIFSETSLDGWLQGQNSRGETGLFPASYVEIVRSGISTNHADYSSSPAGSPGAQVSLYNSPSVASPARSGGGSGFLSNQGSFEEDDDDDWDDWDDGCTVVEEPRAGGLGTNGHPPLNLSYPGAYPSQHMAFRPKPPLERQDSLASAKRGSVVGRNLNRFSCFVRSGVEAFILGDVPMMAKIAETYSIEMGPRGPQWKANPHPFACSVEDPTKQTKFKGIKSYISYKLTPTHAASPVYRRYKHFDWLYNRLLHKFTVISVPHLPEKQATGRFEEDFIEKRKRRLILWMDHMTSHPVLSQYEGFQHFLSCLDDKQWKMGKRRAEKDEMVGASFLLTFQIPTEHQDLQDVEDRVDTFKAFSKKMDDSVLQLSTVASELVRKHVGGFRKEFQKLGSAFQAISHSFQMDPPFCSEALNSAISHTGRTYEAIGEMFAEQPKNDLFQMLDTLSLYQGLLSNFPDIIHLQKGAFAKVKESQRMSDEGRMVQDEADGIRRRCRVVGFALQAEMNHFHQRRELDFKHMMQNYLRQQILFYQRVGQQLEKTLRMYDNL
B2: the binding result in assay [1] and in assay [2] was “binds” each time.
